According to PubChem BioAssay (NCATS):
This is one part of the list. The main result of the screen is listed elsewhere. These columns were measured beside it and carry no call. Words in brackets tell the shape of the fitted curve; partial curves, single points and poor fits give uncertain potencies.

Experiment: qHTS drug screen for cell cycle checkpoint inhibitors in PARPi-resistant BRCA-mutant ovarian cancer cell lines. (AID 1963452)
Settings: PEO1/OlaR viability, CellTiter-Glo luminescence, 96 h; measured here: PEO4 viability
How it was run: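 PEO1, PEO4 and PEO1/OlaR ovarian cancer cells, 600 per well, exposed 96 h at 37C to a dilution series. Viability read by CellTiter-Glo luminescence, normalized to DMSO and empty wells; activity summarized as Z-AUC.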
Tags give direction and shape of the fitted curve.

Structure (SMILES) | AC50
Cc1cc(-c2cc(OC(=O)c3ccccc3)ccc2Cl)cc2nnc(Nc3ccc(OCCN4CCCC4)cc3)nc12 | 8.48 µM [falling, single point]
O=C(NNc1ccccc1)c1ccncc1 | 24.5 µM [falling, single point]
Cc1cc2c(cc1CC(=O)c1sccc1S(=O)(=O)Nc1onc(C)c1Cl)OCO2 | 7.76 µM [falling, partial curve, poor fit]
CN1CCN(c2nc(C3=C(c4c[nH]c5ccccc45)C(=O)NC3=O)c3ccccc3n2)CC1 | 27.5 µM [falling, single point]
CC(C)NC(=O)COc1cccc(-c2nc(Nc3ccc4[nH]ncc4c3)c3ccccc3n2)c1 | 2.75 µM [falling, full curve]
N#Cc1ccnc(N2C(=O)CC[C@H]2C(=O)N(c2cncc(F)c2)C(C(=O)NC2CC(F)(F)C2)c2ccccc2Cl)c1 (some centres not stated) | 0.0069 µM [rising, full curve, poor fit]
CC(=O)Nc1ccc(C(=O)Nc2ccccc2N)cc1 | 13.8 µM [falling, single point]
CC1CCC(C(=O)N(c2cc(C#CC(C)(C)C)sc2C(=O)O)C2CCC(O)CC2)CC1 (configuration not stated) | 19.5 µM [falling, single point]
CCCCOC(=O)NS(=O)(=O)c1sc(CC(C)C)cc1-c1ccc(Cn2ccnc2)cc1 | 13.8 µM [falling, partial curve, poor fit]
Nc1nc(OC(c2ccc(-c3cccc(F)c3)cc2)C(F)(F)F)cc(-c2ccc(C[C@@H](N)C(=O)O)cc2)n1 (some centres not stated) | 0.245 µM [rising, full curve]
NCCOc1cc(C(=O)Nc2cc(OCCN)c3ccccc3n2)nc(C(=O)Nc2cc(OCCN)c3ccccc3n2)c1 | 6.16 µM [falling, partial curve]
Cc1nc2c([nH]1)CCN(C(=O)c1ccc(NC(=O)c3ccccc3-c3ccccc3)cc1)c1ccccc1-2 | 19.5 µM [falling, single point]
CC(C)c1onc(-c2c(Cl)cccc2Cl)c1COc1ccc(/C=C/c2cccc(C(=O)O)c2)c(Cl)c1 | 24.5 µM [falling, single point]
CCNC1(C(N)=O)CCN(c2ncnc3c2nc(-c2ccccc2Cl)n3-c2ccc(Cl)cc2)CC1 | 17.4 µM [falling, single point]
CN[C@@H](C)C(=O)N[C@H](C(=O)N1CCC[C@H]1c1nc(C(=O)c2ccc(F)cc2)cs1)C1CCCCC1 | 0.871 µM [falling, full curve, poor fit]
O=C(CCl)Nc1cccc(NC2=NS(=O)(=O)c3ccccc32)c1 | 24.5 µM [falling, single point]
COc1ccc(CC2=NN3C([C@@H](CCc4ccccc4)[C@@H](C)O)=NC(C)C3C(=O)N2)cc1OC (some centres not stated) | 17.4 µM [falling, partial curve, poor fit]
Cc1[nH]c(/C=C2\C(=O)Nc3ccc(S(=O)(=O)Cc4c(Cl)cccc4Cl)cc32)c(C)c1C(=O)N1CCC[C@@H]1CN1CCCC1 | 24.5 µM [falling, single point]
Cc1c(F)ccc(C(=O)Nc2cc([N+](=O)[O-])ccc2N2CCN(C)CC2)c1Cl | 0.0039 µM [rising, full curve, poor fit]
C[C@@H](O)[C@@H](C)Oc1nc(Nc2ccc(S(=N)(=O)C3CC3)cc2)ncc1C(F)(F)F (some centres not stated) | 19.5 µM [rising, single point]
CC(C)OC(=O)C1=CN(C(=O)c2ccc(F)c(F)c2)CC(C)(C)c2c1[nH]c1ccccc21 | 27.5 µM [falling, single point]
Cc1ccc(Nc2cc(N[C@@H]3CCCC[C@@H]3N)nnc2C(N)=O)nc1C | 17.4 µM [falling, single point]
